# From the supplement of paper PMC11417369
# This is one part of the list.
# System: PF3D7_0420300 AP2 domain 1 (GST-tagged)
# Experiment: gcPBM binding intensity (ln(normalized median fluorescence intensity)); higher = stronger DNA binding
# How it was run: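 DNA-binding domains from P. falciparum, fused to GST and produced in E. coli, were put on an Agilent 4 × 180k double-stranded probe array for 1 h in 1× PBS holding 1% milk, 0.2 mg/ml BSA, 0.5% salmon testes DNA and 0.03% Triton X-100. Probes were primer-extended, 36 bp long and drawn from intergenic genomic regions, with negative controls included. After Alexa488 anti-GST antibody detection and a 488 nm scan, binding intensity was set as the highest Masliner-normalised natural-log median intensity across replicate spots of either probe orientation.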
row,Sequence,gcPBM binding intensity (ln)
1,TATATATATATAAGCACACAAACAAAAAAAATTATA [CACACA_site3897],9.57
2,ATTGAATATGTAAATGCACACCAAAAAAAAAAAAAA [CACACA_site9189],9.21
3,TTTTTCCTATTTTTAGTGCACATATAAATAAATAAA [GTGCAC_site9821],8.92
4,AATAGAATGTAATATACACACATATATTTCTCTTTT [CACACA_site2630],9.45
5,TATATATATATATATTGTACACATTGTGTTTAAATA [XGTACX_site5104],9.17
6,TTGTAACCTATGCACGCACACAAGAAAAAAACAAAA [CACACA_site3775],9.35
7,TTTTTATTGTTAATTTTAATTTTTTTTTTTTAATGC [CACACA_negctrl_site162],8.82
8,TTTCCTTATAAAAATACACACAAACTTTAATTAAAA [CACACA_site7710],9.1
9,TTTCTTTTTAAATGCTGTACAAAGGGTGACGTTAAA [XGTACX_site4724],8.86
10,TATTACACATATTATACACACATATATTATAGATAT [CACACA_site6839],9.58
11,TATTCCAAATTTACTAGTACATAATCCATCCGATAA [XGTACX_site1558],9.04
12,AAAATTCATATATACACACACGCACATATATATATA [CACACA_site90],9.85
13,GAATGTCTAATTTTGATGCACACTTTTGTGCAATTA [CACACA_site2902],9.11
14,CAAAAAATTCAACACACACACACACCGATAAATAAA [CACACA_site8330],10.2
15,TTATATTATTCGTGTGTGCACGATATTTCATAATTG [GTGCAC_site9767],9.45
16,TTGTCCCTATAAGGGGAACACACATAAATGAATATA [CACACA_site8250],9.08
17,ATAATGTTTTATAATACACACATTATGTATATAAAT [CACACA_site4077],9.24
18,AAAACTATTTGTAAAAGTACATAATAAATAAATAAA [XGTACX_site7922],9.28
19,CGTATTTATAGAATTACACACCATATTGTAATTATT [CACACA_site7722],9.32
20,GTGTTTTTATTATTTTGTACACATATATTTAATATT [XGTACX_site2109],9.79
21,TTTTTTTTGTAATACGCATGCTAAAAATATTTATAA [TGCATGCA_site656],8.91
22,ATTTAAATAAGATATACACACAAGTAGAAGACTATG [CACACA_site806],9.71
23,TTTTCGATGTTGGTAGGAAGTTTGGTACACGTAGTA [TGCATGCA_negctrl_site145],9

row,Sequence,gcPBM binding intensity (ln)
1,TTAAGAAATAACAATGCACACATTTAGGTCTTTTAT [CACACA_site3285],9.39
2,ATAACTTGTATATATACACACACACCCTTTCTTTTT [CACACA_site8600],10.1
3,TATATTATATTATACATACACACCCATATAATATGT [CACACA_site869],9.67
4,CTTCAATATATTCTTACACACTTAAAAAAAAAAATA [CACACA_site4287],9.08
5,TTAGATATGTGTAAGGGTACAAAATACTTTACATTT [XGTACX_site8204],9.25
6,CTATTATTTTTAAATTGTACTATAACAAAATGTATA [XGTACX_site3916],8.89
7,TTTATATTTATATAAATATAATATATATGAATTATA [XGTACX_negctrl_site466],8.72
8,AAATAAATCTATAATACACACAAAAATATAAAATGC [CACACA_site7700],9.85
9,ATATATATGTTTTATAGTACACACATAAATGGACAT [XGTACX_site4538],9.56
10,GTTGAACATATATGCACACACATAAAATAAAAAAAA [CACACA_site2413],9.66
11,TTGTGAAACATCAAGAAAAAGAAATAATAAAAAGAA [GTGCAC_negctrl_site38],9.26
12,TTATATTAATATATATGTACATATATTTTTTTTATA [XGTACX_site6981],9.26
13,TCTTTTTTTTTTTTTTTTTTTTTTTATTTATTCATA [CACACA_negctrl_site1827],9.26
14,AAAAGGTATCCACATACGCACACCAAAAAAAAAAAT [CACACA_site347],9.46
15,ATACAACAATGTGAATTATATATGGATGGAGAATGA [GTGCAC_negctrl_site148],9.43
16,ACGTAAGCGAATAAAAGTACATATATTAAAAAAAAA [XGTACX_site4458],9.13
17,TTCTTAAGGAACGAACGTACAGAATAAAAAGTAAAA [XGTACX_site4294],9.12
18,CATTCAATTGAAAAATGTACAAAAATAAACATATGC [XGTACX_site1663],9.42
19,TAAGTATACGCATACACACACACACCCAAAAAAAAA [CACACA_site425],9.99
20,AATAGGAAGACTATTTTGTATTTGATTTTTTATTCC [GTGCAC_negctrl_site453],9.34
21,TAAACATACCTATACACACACACACGCACACGCACA [CACACA_site6372],10.3
22,GTTCCAGGCATTCGTGCGCACAAATAGAAACAATTA [GTGCAC_site9824],9.06
